These results are taken from ChEMBL document CHEMBL4888484, “Replenishing the malaria drug discovery pipeline: Screening and hit evaluation of the MMV Hit Generation Library 1 (HGL1) against asexual blood stage Plasmodium falciparum ,using a nano luciferase reporter read-out” (2022).

Hit rate of the full screen: of about 150,000 compounds, about 540 (0.36%) showed an effect of 50% or more. The list shows a part of the results.

The test system of this assay is Plasmodium falciparum. Put plainly: Primary screen in NF54 nanoGlo assay, in single point, at 2uM, 72h; a lower Z score goes with more inhibition. The class given is functional, Erythrocyte. To be noted: timepoint 72 hour.
With `COCCOCCOCCCNC(=O)c1cc(F)cc(Br)c1`, the “% Inhibition” value was -8% and the Z score worked out at 0.98.
The matching figures for `CC[C@H](NC(=O)N1CCCC2(CCCCCC2)C1)c1nnc2n1CCCCC2`: -23% and 4.13.
For `O=C(c1ccnnc1)N1CCn2nc(C(=O)N3CCCC3)cc2C1`, the “% Inhibition” value is listed as -2% and the Z score is given as 0.42.
Taken in the same sequence, the figures for `CCc1cccc(NC(=O)CN2CCn3nnc(-c4nc(-c5ccccc5)no4)c3C2=O)c1` were -15% and 2.21.
Taken in the same sequence, the figures for `O=C(NCCc1ccc(=O)[nH]c1)C1(c2cc(F)cc(F)c2)CCCC1` were -2% and 0.25.
The matching figures for `O=C(NC1CCCCCC1)c1csnn1`: 3% and -0.31.
In the case of `CC(C)CC1(NC(=O)[C@H]2CCCN(C3CCN(Cc4ccncc4)CC3)C2)CC1`, the “% Inhibition” value is -20% and the Z score is given as 2.16.
Taken in the same sequence, the figures for `CN(Cc1ccccc1)C(=O)Cn1cccc1-c1nc(-c2cccc(Cl)c2)no1` were 1% and -0.19.
The matching figures for `COc1cc2ccc3c(CCN(C)C(=O)c4c(OC)cccc4OC)cc(OC)c(OC)c3c2cc1OC`: 6% and -0.71.
On to `CON(C)c1cc(C)nc(-c2cccs2)n1`, for which the “% Inhibition” value is given as -6% and the Z score came out at 1.18.
The matching figures for `O=C(NC1CC1c1ccc(F)cc1)N1CCN(c2ccccc2O)CC1` (centres undefined): -7% and 1.5.
`Cc1noc(C)c1CCN1CCC[C@H](n2cc(CO)nn2)C1`: the “% Inhibition” value is reported as -4% and the Z score stood at 0.48.
As to `O=C(Nc1cccc(S(=O)(=O)N2CCOCC2)c1)c1cc(S(=O)(=O)N2CCCCC2)ccc1Cl`, the “% Inhibition” value is reported as -16% and the Z score came out at 1.6.
The matching figures for `CCOc1ccc(S(=O)(=O)N2CCN(c3cc(C)nc(N4CCOCC4)n3)CC2)cc1`: -12% and 2.05.
Turning to `CC(C)(C)c1cccc(CN[C@@H]2CC(C(=O)O)C[C@@H]2n2ccnn2)c1` (some centres undefined), the “% Inhibition” value was determined as 1% and the Z score is given as -0.1.
The matching figures for `CCn1nc(C)cc1C(=O)NC[C@H](O)c1ccc(OC(F)F)cc1`: -10% and 1.06.
As to `O=C(c1cc(F)c[nH]1)N1CCN(C(=O)c2cc(F)c[nH]2)[C@@H]2CCCC[C@H]21`, the “% Inhibition” value is 27% and the Z score is listed as -1.86.
Taken in the same sequence, the figures for `Cc1nc(C)c(C(=O)N2CC3CC=CCC3C2)s1` (centres undefined) were -7% and 1.06.
As for `CO[C@H]1CCCN(C2CCN(c3cccc(-c4cscn4)c3)CC2)C1`, the “% Inhibition” value stood at 1% and the Z score is on record as -0.13.
Taken in the same sequence, the figures for `CCOC(=O)CCNC(=O)N1CCC(N2CC3(CCCC3)[C@H]2c2ccccc2)CC1` were -2% and 0.36.
Regarding `O=C(NCc1cc2n(n1)CCCN(Cc1cccc3ccccc13)C2)C1CCC1`, the “% Inhibition” value is -18% and the Z score is on record as 1.65.
The matching figures for `O=C(NCC1(O)CCC1)Nc1ccc(COCc2ccccc2)cc1`: 1% and -0.22.
